# Publication PMC4336329 (PLoS ONE, 2015)
# The whole screen tested about 310,000 compounds, of which about 14,000 (4.5%) showed an effect of 50% or more. Effects have a minus sign here. Some of the results follow.
# Target: human ether-à-go-go-related gene (hERG) potassium channel (human, UniProt Q12809)
# Assay: primary screen, population patch clamp on CHO cells stably expressing hERG
# 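Further: peak tail current of the secondary pulse compared with the same well before compound.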
# Chain of human ether-à-go-go-related gene (hERG) potassium channel (Q12809 whole entry, looked up): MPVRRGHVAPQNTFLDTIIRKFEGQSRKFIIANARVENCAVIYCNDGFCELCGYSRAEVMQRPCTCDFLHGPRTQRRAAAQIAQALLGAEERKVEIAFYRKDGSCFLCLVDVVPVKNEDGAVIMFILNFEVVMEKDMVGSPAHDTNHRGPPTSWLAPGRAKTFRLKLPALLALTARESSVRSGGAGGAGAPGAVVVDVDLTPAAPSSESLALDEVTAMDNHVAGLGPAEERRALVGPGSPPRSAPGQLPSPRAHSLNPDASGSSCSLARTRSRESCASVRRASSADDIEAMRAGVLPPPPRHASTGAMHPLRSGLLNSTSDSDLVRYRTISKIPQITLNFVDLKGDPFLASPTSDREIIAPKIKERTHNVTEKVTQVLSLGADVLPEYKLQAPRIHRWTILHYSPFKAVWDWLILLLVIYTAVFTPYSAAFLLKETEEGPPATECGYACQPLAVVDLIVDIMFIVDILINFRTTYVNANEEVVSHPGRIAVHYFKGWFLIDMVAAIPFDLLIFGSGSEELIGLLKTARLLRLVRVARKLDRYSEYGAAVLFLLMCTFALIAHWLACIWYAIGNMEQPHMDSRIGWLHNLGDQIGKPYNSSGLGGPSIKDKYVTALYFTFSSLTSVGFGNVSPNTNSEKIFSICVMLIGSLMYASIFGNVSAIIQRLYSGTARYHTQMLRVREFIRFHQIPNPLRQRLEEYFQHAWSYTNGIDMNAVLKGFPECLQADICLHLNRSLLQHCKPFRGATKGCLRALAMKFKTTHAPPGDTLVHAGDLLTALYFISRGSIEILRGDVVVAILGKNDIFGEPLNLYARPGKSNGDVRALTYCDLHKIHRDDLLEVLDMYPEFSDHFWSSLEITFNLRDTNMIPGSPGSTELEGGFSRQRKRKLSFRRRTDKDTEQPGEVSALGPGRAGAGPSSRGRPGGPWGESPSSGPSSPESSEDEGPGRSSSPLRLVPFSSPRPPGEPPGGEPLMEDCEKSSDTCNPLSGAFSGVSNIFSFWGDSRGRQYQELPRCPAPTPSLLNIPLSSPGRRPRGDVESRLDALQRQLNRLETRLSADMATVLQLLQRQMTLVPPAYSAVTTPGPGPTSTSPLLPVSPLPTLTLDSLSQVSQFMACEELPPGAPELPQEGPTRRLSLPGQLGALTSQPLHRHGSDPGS
row,SMILES,"hERG current change (%, negative = inhibition) at 10uM [%]"
1,O=C(Oc1cc(Cl)ccc1Cl)c1ccc(N2CCOCC2)c([N+](=O)[O-])c1,4.44
2,CCOC(=O)C1(Cc2ccccc2)CCCN(S(=O)(=O)N(C)C)C1 (stereo not shown),-6.05
3,COc1ccc(OCC(=O)Nc2nc3c(s2)CCCC3)cc1,-3.56
4,CCOC(=O)CC(=O)Nc1c(C)cc(C)cc1C,4.74
5,Cc1ccc(C)c(N(CC(=O)NC2CCCCC2)C(=O)c2csnn2)c1,18.9
6,CCn1c(SCc2nc3ccccc3[nH]2)nnc1-c1cccnc1,18.4
7,O=C1CCN(C(=O)/C=C/c2ccccc2)c2ccccc21,-19.6
8,COc1cccc(OC)c1Oc1ccc(C(F)(F)F)cn1,-3.92
9,CCOC(=O)C1=C(N)Oc2cc(C)n(CCc3ccc(OC)c(OC)c3)c(=O)c2C1c1cccnc1 (stereo not shown),-16.4
10,c1ccc(-c2cc(-c3ccccc3)n3ncnc3n2)cc1,-49.5
11,CCC1CCCCN1S(=O)(=O)c1ccc(NC(=O)C2CCN(C(=O)c3ccco3)CC2)cc1 (stereo not shown),-24
12,CCOC(=O)c1c(N)sc(C(C)=O)c1C,10.5
13,N#Cc1cc([N+](=O)[O-])cnc1NCC(O)CO (stereo not shown),-0.657
14,CC(C)NC(=O)CSc1nc2ccccc2c(=O)n1CCCOC(C)C,7.37
15,CCn1c(SCC(=O)Nc2nonc2C)nnc1-c1ccco1,-8.38
16,O=c1ccc(C(F)(F)F)cn1Cc1cc(=O)n2cc(Br)ccc2n1,-6.81
17,Cc1ccc(N2CC(NS(=O)(=O)c3cccs3)CC2=O)cc1 (stereo not shown),7.53
18,CSc1nc2cc(F)c(F)cc2n1C,-1.51
19,C/C(N)=C(/C#N)C(=O)CSc1nnc(SCc2ccc(Cl)cc2)s1,-3.99
20,CCOC(=O)c1ccc[n+](CC(=O)Nc2ccccc2OC(F)F)c1.[Cl-],4.85
21,O=C(Nc1ccccc1)NC1CCN(Cc2nnnn2C2CCCCC2)CC1,-29.2
22,Cc1cc(C)c2c3c(sc2n1)C(=O)N(Cc1ccccc1)CC(=O)N3,-26
23,S=c1[nH]nc(-c2ccccn2)n1/N=C/c1c(Cl)cccc1Cl,19.5

row,SMILES,"hERG current change (%, negative = inhibition) at 10uM [%]"
1,O=C(CCN1CCCCCC1)Nc1ccc(F)c(F)c1,-43.1
2,CC1CCc2c(sc(NC(=O)Cn3nc(C(F)(F)F)c4c3CCCCC4)c2C#N)C1 (stereo not shown),6.82
3,Cc1ccc(/C=C2\SC(=S)N(CCC(=O)NNC(=O)c3ccncc3)C2=O)cc1,12.9
4,O=C(CN1CCCCC1)Nc1c2c(nc3ccccc13)N(c1ccccc1)CC2.O=C(O)C(=O)O,3.12
5,Cl.OC(COCC1COc2ccccc2O1)CN1CCCCC1 (stereo not shown),-43.6
6,O=C(Nc1cccc(NC(=O)N2CCN(c3ccccc3)CC2)c1)N1CCN(c2ccccc2)CC1,-44.4
7,O=C(O)c1nn(CCOc2cccc(Cl)c2)c(=O)c2ccccc12,-10.6
8,Cc1ccc(SCC(=O)Nc2ccc(N3CCOCC3)cc2)c(C)c1,10.5
9,CCOc1cc(CN2CCN(c3ncccn3)CC2)ccc1OC,-4.8
10,COc1ccc(/C=N/NC(=O)c2snnc2C)c(OC)c1OC,2.98
11,CCOc1ccc(-n2cnnn2)cc1S(=O)(=O)NC1CC1,-0.281
12,CC(=O)Nc1ccc(S(=O)(=O)N2CCN(C34CC5CC(CC(C5)C3)C4)CC2)cc1,-3.7
13,Cc1ccc(S(=O)(=O)N2CCCC2CNC(=O)C(=O)NC2CCCC2)cc1 (stereo not shown),-40.3
14,Cc1nnnn1/C(=C\c1ccccc1)C(=O)OCC(=O)Nc1ccc(Cl)cc1F,-13.7
15,CCCCn1c(=O)c(C(=O)NCc2ccccc2)c(O)c2ccccc21,17.2
16,COCc1cc(=O)[nH]c(/N=C(\N)Nc2ccc(Oc3ccccc3)cc2)n1,-20.8
17,O=c1[nH]c(=S)[nH]c(O)c1N=Nc1cc(S(=O)(=O)Nc2ccc(Cl)cc2)ccc1Cl,3.52
18,C=CCNC(=O)CN1C(=O)C2C3c4ccccc4C(c4ccccc43)C2C1=O (stereo not shown),26.9
19,CCCn1nnc2ccccc2c1=O,-4.09
20,Cc1ccc(C(=O)NNC(=O)C2CCN(S(=O)(=O)c3ccc(C)cc3)CC2)cc1,-3.49
21,CC(C)CNc1ncnc2c1sc1nc(N3CCOCC3)c3c(c12)CC(C)(C)OC3,-4.77
22,O=C(N/N=C/c1cccc([N+](=O)[O-])c1O)C(O)(c1ccccc1)c1ccccc1,8.16
23,O=C1NC(=O)C2C3c4ccccc4C(c4ccccc43)C12 (stereo not shown),-11.5

row,SMILES,"hERG current change (%, negative = inhibition) at 10uM [%]"
1,Cc1ccc(-c2ocnc2C(=O)N2CCN(C(=O)c3cccs3)CC2)cc1,0.043
2,c1ccc(-c2ncc(CSc3nncn3-c3ccccc3)s2)cc1,-24
3,CCOc1ccc(CC(=O)N/N=C/c2cccnc2)cc1,9.88
4,O=C(COC(=O)c1ccc[nH]c1=O)NC1CCCCC1,7.99
5,CCN(c1ccccc1)S(=O)(=O)c1ccc(OC)c(NC(=O)CNC)c1.O=C(O)C(=O)O,13.6
6,COc1cc(NC(=O)c2ccccn2)cc(OC)c1OC,13.2
7,CCOC(=O)C1CCN(C(=O)COC(=O)COc2ccc(Cl)cc2)CC1,13.3
8,COC(=O)[C@H](CCSC)NC(=O)Nc1cc(C)ccc1C,11
9,COc1ccc(/C=C2\SC(=N)N(c3ccc(F)cc3)C2=O)cc1,17.6
10,CCOc1cc2[nH]c(=O)n(CC3CCC(C(=O)NCCCOC)CC3)c(=O)c2cc1OCC (stereo not shown),17.5
11,Cc1ccc(CN2CC(C(=O)Nc3ccc4c(C)cc(=O)oc4c3)CC2=O)cc1 (stereo not shown),4.88
12,CCN(CCCNC(=O)c1nn(C)c2c1CS(=O)(=O)c1ccccc1-2)Cc1ccccc1,-60.3
13,COc1ccc(CNC(=O)/C=C/c2cc3c(cc2Br)OCO3)cc1,9.67
14,CCCCNC(=O)O/N=C(\N)CS(=O)(=O)C(C)(C)C,-3.57
15,CCC1CCc2sc(C(=O)NNC(=O)c3ccncc3)cc2C1 (stereo not shown),-16.2
16,CCC(C)C(NC(=O)C1CCC(C)CC1)C(=O)NCCc1ccc(S(N)(=O)=O)cc1 (stereo not shown),4.32
17,C=CCN(c1ccc(C(=O)N2CCN(c3ccc(F)cc3)CC2)cc1)S(C)(=O)=O,-43.7
18,O=C(CSc1ncnc2c1nnn2Cc1ccc(F)cc1)NCC1CCCO1 (stereo not shown),-30.5
19,COc1cc(CCNc2ccc3nnc(-c4ccccc4)n3n2)cc(OC)c1OC,-14
20,CCc1cc2c(C)cc(C)cc2nc1SCC(=O)Nc1cc(C)on1,24.7
21,O=C(Nc1nc(-c2ccc3c(c2)Cc2ccccc2-3)cs1)c1ccccc1,20.4
22,CCCOc1ccc(-c2nc(-c3ccc([N+](=O)[O-])cc3)cs2)cc1,25.9
23,CC1CCN(c2ccc(NC(=O)c3ccc(Br)o3)cc2)CC1,-2.82

row,SMILES,"hERG current change (%, negative = inhibition) at 10uM [%]"
1,COc1ccc2[nH]c3c(Cl)ncnc3c2c1,-1.57
2,Cc1[nH]c2ccccc2c1C(c1ccccn1)N1CCC(C)CC1 (stereo not shown),-46.9
3,COc1cc(CCC(C)NCc2ccccc2)ccc1O (stereo not shown),-3.87
4,Nc1nnc(CCCCCc2nnc(N)s2)s1,13.3
5,Cc1nnc(N(C)C(=O)c2ccccn2)s1,13.2
6,Fc1ccccc1Nc1ncnc2c1nnn2Cc1ccccc1,-20
7,COC(=O)Nc1ccc(Oc2ccccc2)cc1,-29.9
8,CCn1nnnc1SCC(=O)N1CCCCC1,11.5
9,N#CCC(=O)N/N=C/c1cn(Cc2ccc(Cl)c(Cl)c2)c2ccccc12,12.6
10,CCCCN(C)C1CCN(C(=S)Nc2cccc(OC)c2)CC1,-19.9
11,CCCn1c(C)cc(/C=C(\C#N)C(=O)O)c1C,10.4
12,CC(NC(=O)c1ccc(S(=O)(=O)N(C)C)cc1)c1ccccc1 (stereo not shown),0.971
13,CC(C)NC(=O)C(=O)NNC(=O)C12CC3CC(CC(C3)C1)C2,15.4
14,Cc1ccc(S(=O)(=O)N(C)C)cc1NC(=O)COC(=O)/C=C/c1ccc2c(c1)OCO2,-9.63
15,Cc1cc(CN2CCOCC2)c(O)c(C2(C)CCCCC2)c1,12.2
16,CC(=O)/C(=C/c1ccc(N(C)C)cc1)C(=O)c1ccccc1,14.7
17,CC(=O)NC(Cc1ccccc1F)C(=O)NC1CCN(C(=O)Nc2ccc(C)cc2)CC1 (stereo not shown),-4.62
18,CC1(NC(=O)Nc2ccccc2)CCS(=O)(=O)C1 (stereo not shown),-53
19,FC(F)Oc1ccccc1/C=N/Nc1nc2ccccc2o1,33.5
20,CC(C)n1c(SCC(=O)NC2CCCCC2)nnc1-c1ccco1,-15.4
21,COC(=O)CNC(=O)c1ccccc1F,14.9
22,CC(C(=O)N1CCN=C1c1ccccc1)N1C(=O)c2ccccc2C1=O (stereo not shown),25.9
